Where two headings read alike, the source gives them in different places.
Key:
Experiment in all cases: cells
[1] = test system: HCC1954 basal breast cancer cell line; conditions: Homo sapiens, HCC1954, 120 h
[2] = test system: MCF-7 luminal breast cancer cell line; conditions: Homo sapiens, MCF7, 120 h
[3] = test system: MDA-MB-468 basal breast cancer cell line; conditions: Homo sapiens, MDA-MB-468, 120 h
[4] = test system: SW620 colon cancer cell line; conditions: Homo sapiens, SW-620, 120 h, read-out: Cell Line GI50 Range SW-620
[5] = test system: human mammary epithelial primary cells (HMEC); conditions: 120 h, read-out: Cell Line GI50 Range HMEC
[6] = test system: A549 lung cancer cell line; conditions: Homo sapiens, A549, 120 h, read-out: Cell Line GI50 Range A-549
[7] = read-out: Cell Line GI50 Range HCC-1954, HCC1954 basal breast cancer cell line, SRB assay, 5 days
[8] = read-out: Cell Line GI50 Range MDA-MB-468
[9] = read-out: Cell Line GI50 Range HCC-1954
[10] = read-out: Cell Line GI50 Range MCF-7

SMILES	GI50 [1, 7] [nM]	GI50 ([2]; read-out: Cell Line GI50 Range MCF-7, MCF-7 luminal breast cancer cell line, SRB assay, 5 days) [nM]	GI50 [3, 8] [nM]	GI50 [4] [nM]	GI50 [5] [nM]	GI50 [6] [nM]	GI50 [1, 9] [nM]	GI50 [2, 10] [nM]	GI50 ([3]; read-out: Cell Line GI50 Range MDA-MB-468, MDA-MB-468 basal breast cancer cell line, SRB assay, 5 days) [nM]
COc1ccc2c(c1)[C@]1(C[C@H]1c1ccc3c(/C=C/c4cccc(CN5CCOCC5)c4)n[nH]c3c1)C(=O)N2 [Example A132, (1R,2S)-5′-methoxy-2-(3-(3-(morpholinomethyl)styryl)-1H-indazol-6-yl)spiro[cyclopropane-1,3′-indolin]-2′-one 2,2,2-trifluoroacetate]	1000 to 10000	100 to 1000	< 100	< 100	> 10000	< 100	–	–	–
COc1ccc2c(c1)[C@]1(C[C@H]1c1ccc3c(/C=C/c4ccc(N5CCN(C)CC5)cc4)n[nH]c3c1)C(=O)N2 [Example A175, (1R,2S)-(E)-5′-methoxy-2-(3-(4-(4-methylpiperazin-1-yl)styryl)-1H-indazol-6-yl)spiro[cyclopropane-1,3′-indolin]-2′-one 2,2,2-trifluoroacetate]	–	–	< 100	< 100	1000 to 10000	< 100	100 to 1000	100 to 1000	–
COc1ccc2c(c1)[C@]1(C[C@H]1c1ccc3c(-c4ccc(N5CCN(CCO)CC5)cc4)n[nH]c3c1)C(=O)N2 [Example A191, (1R,2S)-2-(3-(4-(4-(2-hydroxyethyl)piperazin-1-yl)phenyl)-1H-indazol-6-yl)-5′-methoxyspiro[cyclopropane-1,3′-indolin]-2′-one 2,2,2-trifluoroacetate]	1000 to 10000	–	–	100 to 1000	> 10000	< 100	–	1000 to 10000	< 100
COc1ccc2c(c1)[C@]1(C[C@H]1c1ccc3c(/C=C/c4ccc(OCCN5CCOCC5)cc4)n[nH]c3c1)C(=O)N2 [Example A194, (1R,2S)-(E)-5′-methoxy-2-(3-(4-(2-morpholinoethoxy)styryl)-1H-indazol-6-yl)spiro[cyclopropane-1,3′-indolin]-2′-one 2,2,2-trifluoroacetate]	–	–	< 100	100 to 1000	> 10000	< 100	> 10000	< 100	–
